{"source": "paper PMC6664820", "about": "“Novel natural and synthetic inhibitors of solute carriers SGLT1 and SGLT2” (Pharmacology Research & Perspectives, 2019)", "note": "In all, about 1,900 compounds went through this assay and about 40 (2%) showed an effect of 50% or more. The list shows a part of the results. Residues, ends and D or L forms follow the SMILES beside them.", "data": [{"target": "human SGLT1 (hSGLT1) (human, UniProt P13866)", "sequence (P13866 whole entry, looked up)": "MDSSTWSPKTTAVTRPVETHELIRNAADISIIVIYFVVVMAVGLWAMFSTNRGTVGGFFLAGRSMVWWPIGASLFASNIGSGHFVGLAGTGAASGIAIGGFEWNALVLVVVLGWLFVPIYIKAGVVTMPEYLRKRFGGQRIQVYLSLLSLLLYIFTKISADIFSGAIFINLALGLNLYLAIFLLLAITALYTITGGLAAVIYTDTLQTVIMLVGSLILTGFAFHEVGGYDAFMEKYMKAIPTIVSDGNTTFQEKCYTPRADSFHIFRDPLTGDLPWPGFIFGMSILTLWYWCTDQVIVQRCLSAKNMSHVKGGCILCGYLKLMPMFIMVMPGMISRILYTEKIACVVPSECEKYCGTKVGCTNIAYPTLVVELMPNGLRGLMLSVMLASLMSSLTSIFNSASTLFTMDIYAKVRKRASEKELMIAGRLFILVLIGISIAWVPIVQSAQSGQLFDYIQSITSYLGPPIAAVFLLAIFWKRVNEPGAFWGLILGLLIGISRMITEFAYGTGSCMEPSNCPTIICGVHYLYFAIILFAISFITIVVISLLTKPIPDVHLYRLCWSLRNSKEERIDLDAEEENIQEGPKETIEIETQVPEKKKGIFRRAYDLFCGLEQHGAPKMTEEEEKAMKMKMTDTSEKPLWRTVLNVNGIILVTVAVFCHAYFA", "test": "primary screen, percent of control activity; higher = less effect of the substance", "design": "single well", "conditions": "50 µM", "method_in_brief": "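Single-point screen at 50 µmol/L in CHO-hSGLT1 cells, with 160 µmol/L 1-NBD-glucose in glucose-free DMEM for 90 min at 37°C. Fluorescence from isopropanol extracts was calibrated, and CHO wild-type uptake was subtracted. Data are percent of uptake without compound.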", "units": {"NORMALIZED SGLT1 ACTIVITY (%)": "%"}, "values": [{"compound": "O=C1CCc2cc(OCCCCc3nnnn3C3CCCCC3)ccc2N1", "NORMALIZED SGLT1 ACTIVITY (%)": 231}, {"compound": "CCCCOc1cc(CC2CNC(=O)N2)ccc1OC", "note": "(stereo not shown)", "NORMALIZED SGLT1 ACTIVITY (%)": 157}, {"compound": "CCOc1ccc(C(=O)c2ccc(O)c(O)c2O)cc1", "NORMALIZED SGLT1 ACTIVITY (%)": 324}, {"compound": "COc1cc([C@@H]2c3cc4c(cc3[C@@H](O[C@@H]3O[C@@H]5CO[C@@H](c6cccs6)O[C@H]5[C@H](O)[C@H]3O)[C@H]3COC(=O)[C@H]23)OCO4)cc(OC)c1O", "NORMALIZED SGLT1 ACTIVITY (%)": 317}, {"compound": "CC1(C)C(=O)[C@@H]2C[C@@]3(O)C4=CC(=O)O[C@@H](c5ccoc5)[C@]4(C)CCC3[C@@](C)(C2=O)[C@H]1CC(=O)O", "note": "(stereo partly shown)", "NORMALIZED SGLT1 ACTIVITY (%)": 110}, {"compound": "O=C(O)COc1ccc(Cl)cc1Cl", "NORMALIZED SGLT1 ACTIVITY (%)": 196}, {"compound": "CCOC(=O)c1c(C)cc(O)cc1O", "NORMALIZED SGLT1 ACTIVITY (%)": 175}, {"compound": "C[C@]12C=CC(=O)C=C1CCC1C2C(=O)C[C@@]2(C)C1CC[C@]2(O)C(=O)CO", "note": "(stereo partly shown)", "NORMALIZED SGLT1 ACTIVITY (%)": 127}, {"compound": "O=C(O[C@@H]1Cc2c(O)cc(O)cc2O[C@@H]1c1cc(O)c(O)c(O)c1)c1cc(O)c(O)c(O)c1", "NORMALIZED SGLT1 ACTIVITY (%)": 134}, {"compound": "CCc1ccc(CCOc2ccc(CC3SC(=O)NC3=O)cc2)nc1.Cl", "note": "(stereo not shown)", "NORMALIZED SGLT1 ACTIVITY (%)": 179}, {"compound": "COc1cc(/C=C/C(=O)O)ccc1O", "NORMALIZED SGLT1 ACTIVITY (%)": 147}, {"compound": "C[C@H](CCC(=O)O)[C@H]1CCC2C3C(CC[C@@]21C)[C@@]1(C)CC[C@@H](O)C[C@H]1C[C@H]3O", "note": "(stereo partly shown)", "NORMALIZED SGLT1 ACTIVITY (%)": 231}, {"compound": "CCCNCC(O)COc1ccccc1C(=O)CCc1ccccc1.Cl", "note": "(stereo not shown)", "NORMALIZED SGLT1 ACTIVITY (%)": 77}, {"compound": "COC(=O)[C@]1(C)CC[C@]2(C)CC[C@]3(C)C4=CCc5c(cc(OC(C)=O)c(OC(C)=O)c5C)[C@]4(C)CC[C@@]3(C)C2C1", "note": "(stereo partly shown)", "NORMALIZED SGLT1 ACTIVITY (%)": 116}, {"compound": "CC(=O)c1c(O)cc(O)cc1O", "NORMALIZED SGLT1 ACTIVITY (%)": 144}, {"compound": "O=c1c(-c2cc(O)c(O)c(O)c2)coc2cc(O)c(O)c(O)c12", "NORMALIZED SGLT1 ACTIVITY (%)": 134}, {"compound": "CC(C)[C@H](N)C(=O)N[C@@H](Cc1c[nH]c2ccccc12)C(=O)O", "note": "(H-Val-Trp-OH)", "NORMALIZED SGLT1 ACTIVITY (%)": 97}, {"compound": "CC(=O)Nc1nnc(S(N)(=O)=O)s1", "NORMALIZED SGLT1 ACTIVITY (%)": 107}, {"compound": "C/C=C/c1ccc(OC)cc1", "NORMALIZED SGLT1 ACTIVITY (%)": 191}, {"compound": "CC1=C2[C@H]3OC(=O)[C@@H](C)[C@@H]3CC[C@@]2(C)C=CC1=O", "NORMALIZED SGLT1 ACTIVITY (%)": 101}, {"compound": "c1ccc2c(c1)cc1ccc3cccc4ccc2c1c34", "NORMALIZED SGLT1 ACTIVITY (%)": 186}, {"compound": "CC(=O)Oc1cc(OC(C)=O)c2c(c1)O[C@H](c1ccc(OC(C)=O)c(OC(C)=O)c1)[C@@H](OC(C)=O)C2", "NORMALIZED SGLT1 ACTIVITY (%)": 62}, {"compound": "Cc1cc(=O)[nH]c(=S)[nH]1", "NORMALIZED SGLT1 ACTIVITY (%)": 112}, {"compound": "NS(=O)(=O)c1cc2c(cc1C(F)(F)F)NC(Cc1ccccc1)NS2(=O)=O", "note": "(stereo not shown)", "NORMALIZED SGLT1 ACTIVITY (%)": 125}, {"compound": "CC(=O)Oc1ccc(/C=C/c2cc(OC(C)=O)cc(OC(C)=O)c2)cc1", "NORMALIZED SGLT1 ACTIVITY (%)": 222}, {"compound": "C[N+](C)(C)CCCCCC[N+](C)(C)C.[Br-].[Br-]", "NORMALIZED SGLT1 ACTIVITY (%)": 95}, {"compound": "COc1cc(S(C)=O)ccc1-c1nc2cccnc2[nH]1", "note": "(stereo not shown)", "NORMALIZED SGLT1 ACTIVITY (%)": 237}, {"compound": "CC(=O)O[C@H]1CC[C@]2(C)C3CC[C@@]4(C)C(CC5O[C@@]6(CCC(C)CO6)[C@@H](C)C54)C3CC[C@@H]2C1", "note": "(stereo partly shown)", "NORMALIZED SGLT1 ACTIVITY (%)": 94}, {"compound": "Cn1c(=O)c2c(ncn2C)n(C)c1=O", "NORMALIZED SGLT1 ACTIVITY (%)": 178}, {"compound": "CCCSc1ccc2nc(NC(=O)OC)[nH]c2c1", "NORMALIZED SGLT1 ACTIVITY (%)": 124}, {"compound": "COc1c(N2CCNC(C)C2)c(F)cc2c(=O)c(C(=O)O)cn(C3CC3)c12", "note": "(stereo not shown)", "NORMALIZED SGLT1 ACTIVITY (%)": 125}, {"compound": "COC(=O)C[C@H]1C(C)(C)[C@@H](OC(C)=O)[C@@H]2CC3C4CC(=O)O[C@@H](c5ccoc5)[C@]4(C)CCC3[C@@]1(C)C2=O", "note": "(stereo partly shown)", "NORMALIZED SGLT1 ACTIVITY (%)": 111}, {"compound": "NS(=O)(=O)c1cc(C2(O)NC(=O)c3ccccc32)ccc1Cl", "note": "(stereo not shown)", "NORMALIZED SGLT1 ACTIVITY (%)": 132}, {"compound": "Cl.NCCc1ccc(O)c(O)c1", "NORMALIZED SGLT1 ACTIVITY (%)": 99}, {"compound": "CC[C@@]1(C2O[C@@H](C3O[C@@](O)(CC)[C@H](C)C[C@@H]3C)C[C@@H]2C)CC[C@H]([C@]2(C)CCC3(C[C@H](O)[C@@H](C)[C@@H]([C@H](C)[C@@H](OC)[C@H](C)C(=O)[O-])O3)O2)O1.[Na+]", "note": "(stereo partly shown)", "NORMALIZED SGLT1 ACTIVITY (%)": 156}, {"compound": "C[C@@H]1CC[C@@]2(OC1)O[C@H]1CC3C4CC[C@H]5C[C@@H](O)CC[C@]5(C)C4CC[C@]3(C)[C@H]1[C@@H]2C", "note": "(stereo partly shown)", "NORMALIZED SGLT1 ACTIVITY (%)": 151}, {"compound": "CC(C)=CCc1c(O)cc(C)oc1=O", "NORMALIZED SGLT1 ACTIVITY (%)": 102}, {"compound": "O=C(O[C@@H]1Cc2c(O)cc(O)cc2O[C@@H]1c1cc(O)c(O)c(O)c1-c1c([C@H]2Oc3cc(O)cc(O)c3C[C@H]2O)cc(O)c(O)c1O)c1cc(O)c(O)c(O)c1", "NORMALIZED SGLT1 ACTIVITY (%)": 105}, {"compound": "Oc1c(Cl)cc(Cl)c(Cl)c1Cc1c(O)c(Cl)cc(Cl)c1Cl", "NORMALIZED SGLT1 ACTIVITY (%)": -43}, {"compound": "CSCCC(NC=O)C(=O)NC(CC(C)C)C(=O)NC(Cc1ccccc1)C(=O)O", "note": "(stereo not shown)", "NORMALIZED SGLT1 ACTIVITY (%)": 125}, {"compound": "O=C(CCCCCCCCCCCCC1CCCC1)Nc1ccc(S(=O)(=O)c2ccc(NC(=O)CCCCCCCCCCCCC3CCCC3)cc2)cc1", "NORMALIZED SGLT1 ACTIVITY (%)": 128}, {"compound": "O=C(O)c1cc(O)c(O)c(O)c1", "NORMALIZED SGLT1 ACTIVITY (%)": 112}, {"compound": "CC1=NN(c2ccccc2)C(=O)C1", "NORMALIZED SGLT1 ACTIVITY (%)": 113}, {"compound": "COC(=O)C[C@H]1C(C)(C)C2(Cl)O[C@@]34CC2C(=O)[C@]1(C)C3CC[C@]1(C)C4=CC(=O)O[C@H]1c1ccoc1", "note": "(stereo partly shown)", "NORMALIZED SGLT1 ACTIVITY (%)": 116}, {"compound": "C=C1C2CC[C@@]3(C)[C@H](c4ccoc4)OC(=O)C[C@]13O[C@H]1CC(=O)C(C)(C)[C@H](C(OC(C)=O)C(=O)OC)[C@@]21C", "note": "(stereo partly shown)", "NORMALIZED SGLT1 ACTIVITY (%)": 197}, {"compound": "CC1CCC2(OC1)OC1CC3C4CCC5C[C@@H](O)CCC5(C)C4=CCC3(C)C1[C@@H]2C", "note": "(stereo partly shown)", "NORMALIZED SGLT1 ACTIVITY (%)": 89}, {"compound": "COc1cc2c(cc1OC)[C@@H]1C(=O)c3ccc(O)c(CC=C(C)C)c3O[C@@H]1CO2", "NORMALIZED SGLT1 ACTIVITY (%)": 206}, {"compound": "COc1cc2c(c(OC)c1OC)-c1ccc(O)c(=O)cc1[C@@H](NC(C)=O)CC2", "NORMALIZED SGLT1 ACTIVITY (%)": 103}, {"compound": "CC1(C)C=CC(=O)[C@@]2(C)C1CC(=O)[C@]1(C)C2CC[C@@]2(C)[C@H](c3ccoc3)OC(=O)[C@H]3O[C@]321", "note": "(stereo partly shown)", "NORMALIZED SGLT1 ACTIVITY (%)": 85}, {"compound": "OCc1ccccc1O", "NORMALIZED SGLT1 ACTIVITY (%)": 108}, {"compound": "COc1cc2c(cc1OC)C(=O)c1ccc(OC)c(OC)c1OCC(=O)C2", "NORMALIZED SGLT1 ACTIVITY (%)": 169}, {"compound": "O=C(O[C@@H]1Cc2c(O)cc(O)cc2O[C@@H]1c1ccc(O)c(O)c1)c1cc(O)c(O)c(O)c1", "NORMALIZED SGLT1 ACTIVITY (%)": 115}, {"compound": "O=C(O)c1ccc(S(=O)(=O)N(Cl)Cl)cc1", "NORMALIZED SGLT1 ACTIVITY (%)": 89}, {"compound": "NC(CSCSCC(N)C(=O)O)C(=O)O", "note": "(stereo not shown)", "NORMALIZED SGLT1 ACTIVITY (%)": 117}, {"compound": "COC(=O)[C@H](c1ccccc1Cl)N1CCc2sccc2C1.O=S(=O)(O)O", "NORMALIZED SGLT1 ACTIVITY (%)": 58}]}]}
